Reference: the supplement of paper PMC4967469

Columns and labels:
Assay in all cases: Viability of human cancer cell lines after 72 h of drug (GDSC screen)
[1] = compound: CC(=O)c1c(C)c2cnc(Nc3ccc(N4CCNCC4)cn3)nc2n(C2CCCC2)c1=O [PD-0332991]
Method: (§1)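 Human cancer cell lines in 384-well plates, medium with 10% serum, drug for 72 h over a 256-fold dose range (nine 2-fold or five 4-fold steps up to the top dose). Adherent lines were fixed and stained with the nucleic acid dye Syto60, suspension lines read with resazurin; signal relative to control wells, capped at 0 and 100%. One two-parameter sigmoid per drug and line, fitted in a mixed model over all curves with the slope shared within a line.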

[2] = compound: COc1cc2c(Nc3ccc(NC(=O)c4ccccc4)cc3)ncnc2cc1OCCCN1CCOCC1 [ZM-447439]; conditions: top dose inferred
Method: as §1

[3] = compound: Cn1cnc2c(F)c(Nc3ccc(Br)cc3Cl)c(C(=O)NOCCO)cc21 [AZD6244]; conditions: screen: GDSC drug entry 1062
Method: as §1

Cell Line | AUC [1] | IC50 [1] [µM] | AUC [2] | IC50 [2] [µM] | AUC [3] | IC50 [3] [µM]
NCI-H526 (small cell lung carcinoma, suspension, top dose 4 µM) | 0.99 | > 4 | 0.893 | > 4 | 0.987 | > 4
NCI-H596 (lung adenocarcinoma, adherent, top dose 4 µM) | 0.982 | > 4 | 0.975 | > 4 | 0.982 | > 4
NCI-H630 (large intestine, adherent, top dose 4 µM) | 0.941 | > 4 | 0.976 | > 4 | 0.927 | > 4
NCI-H647 (non-small cell lung carcinoma, adherent, top dose 4 µM) | 0.945 | > 4 | 0.894 | > 4 | 0.953 | > 4
NCI-H650 (lung adenocarcinoma, adherent, top dose 4 µM) | 0.871 | > 4 | 0.963 | > 4 | 0.984 | > 4
NCI-H661 (large cell lung carcinoma, adherent, top dose 4 µM) | 0.809 | 2.65 | 0.892 | > 4 | 0.956 | > 4
NCI-H720 (lung carcinoid, suspension, top dose 4 µM) | 0.992 | > 4 | 0.818 | 2.01 | 0.992 | > 4
NCI-H727 (lung carcinoid, adherent, top dose 4 µM) | 0.9 | > 4 | 0.892 | > 4 | 0.864 | > 4
NCI-H747 (large intestine, adherent, top dose 4 µM) | 0.704 | 1.08 | 0.756 | 1.65 | 0.569 | 0.403
NCI-H810 (large cell lung carcinoma, adherent, top dose 4 µM) | 0.988 | > 4 | 0.922 | > 4 | 0.988 | > 4
NCI-H835 (lung carcinoid, suspension, top dose 4 µM) | 0.983 | > 4 | 0.983 | > 4 | 0.989 | > 4
NCI-H841 (small cell lung carcinoma, adherent, top dose 4 µM) | 0.897 | > 4 | 0.868 | 3.68 | 0.988 | > 4
NCI-H847 (small cell lung carcinoma, adherent, top dose 4 µM) | 0.993 | > 4 | 0.918 | > 4 | 0.992 | > 4
NCI-H929 (myeloma, suspension, top dose 4 µM) | 0.954 | > 4 | 0.929 | > 4 | 0.981 | > 4
NCI-H1048 (small cell lung carcinoma, adherent, top dose 4 µM) | 0.984 | > 4 | 0.817 | 1.95 | 0.985 | > 4
NCI-H1092 (small cell lung carcinoma, suspension, top dose 4 µM) | 0.99 | > 4 | 0.99 | > 4 | 0.988 | > 4
NCI-H1105 (small cell lung carcinoma, suspension, top dose 4 µM) | 0.993 | > 4 | 0.883 | 2.98 | 0.993 | > 4
NCI-H1155 (large cell lung carcinoma, suspension, top dose 4 µM) | 0.987 | > 4 | 0.932 | > 4 | 0.954 | > 4
NCI-H1304 (small cell lung carcinoma, suspension, top dose 4 µM) | 0.986 | > 4 | 0.97 | > 4 | 0.988 | > 4
NCI-H1341 (small cell lung carcinoma, suspension, top dose 4 µM) | 0.992 | > 4 | 0.949 | > 4 | 0.99 | > 4
NCI-H1355 (lung adenocarcinoma, adherent, top dose 2 µM) | 0.773 | 1.16 | 0.905 | > 2 | 0.936 | > 2
NCI-H1395 (lung adenocarcinoma, adherent, top dose 4 µM) | 0.971 | > 4 | 0.961 | > 4 | 0.972 | > 4
NCI-H1417 (small cell lung carcinoma, suspension, top dose 4 µM) | 0.305 | 0.0633 | 0.797 | 2.32 | 0.967 | > 4
NCI-H1435 (lung adenocarcinoma, semi-adherent, top dose 4 µM) | 0.993 | > 4 | 0.992 | > 4 | 0.99 | > 4

A lower IC50 marks a more sensitive line; where the fit passes the top or lowest dose, that dose stands as a limit. The AUC spans the tested range (256-fold, ending at the top dose) of the same fit: 1 means no effect, lower means more sensitive. For part of these data: An inferred top dose was calculated from the reported fits. For part of these data: An entry number marks a drug with two screens in the source, which often give different values.
